Whole data set: some 33,000 sequences, median “E-score (-0.5 to 0.5)” near -0.012, cut for the highest 2% near 0.27. Some of the results follow.
Target: T1, Vhr1 (UniProt P40522)
T1 sequence: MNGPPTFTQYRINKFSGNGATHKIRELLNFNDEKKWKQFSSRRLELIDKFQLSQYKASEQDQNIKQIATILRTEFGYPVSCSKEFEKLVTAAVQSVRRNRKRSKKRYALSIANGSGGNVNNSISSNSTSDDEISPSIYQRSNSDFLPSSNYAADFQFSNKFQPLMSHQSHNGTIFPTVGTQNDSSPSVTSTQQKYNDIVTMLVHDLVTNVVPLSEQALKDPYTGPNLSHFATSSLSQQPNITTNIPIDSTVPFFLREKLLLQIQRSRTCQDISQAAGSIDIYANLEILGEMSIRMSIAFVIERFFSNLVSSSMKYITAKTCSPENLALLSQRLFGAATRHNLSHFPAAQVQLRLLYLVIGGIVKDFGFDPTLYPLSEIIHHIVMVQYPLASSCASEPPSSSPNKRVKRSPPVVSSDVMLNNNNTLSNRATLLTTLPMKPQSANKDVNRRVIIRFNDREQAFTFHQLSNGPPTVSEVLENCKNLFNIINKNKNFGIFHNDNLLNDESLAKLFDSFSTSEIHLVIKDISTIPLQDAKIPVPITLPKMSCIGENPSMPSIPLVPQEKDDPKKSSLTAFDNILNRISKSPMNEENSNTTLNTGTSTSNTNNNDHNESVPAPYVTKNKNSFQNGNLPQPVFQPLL
Assay: PBM E-score (8-mer binding enrichment) (E-score (-0.5 to 0.5)); higher = stronger / more preferred TF binding; most listed sequences are background and not binding sites
Conditions: protein concentration: 200 nM; construct: GST-full length
Procedure: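 Universal 'all 10-mer' protein binding microarrays (Agilent AMADID 015681) probed with GST-tagged S. cerevisiae TFs (full-length or DBD) made by in vitro transcription/translation (PURExpress), about 100-200 nM. Bound TF was detected with fluorescent anti-GST. Each ungapped 8-mer (which stands for itself and its reverse complement) is scored by the PBM enrichment score (E-score), a modified Wilcoxon-Mann-Whitney statistic from -0.5 to +0.5, computed with the Universal PBM Analysis Suite. Scale: above 0.35 generally sequence-specific binding.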

| Sequence | PBM E-score |
| --- | --- |
| TCCGGACA | -0.0474 |
| TACCTATA | 0.0684 |
| AAGTAAAA | -0.118 |
| GCCGTAGC | -0.163 |
| CGTCAGAG | -0.103 |
| GTGTTACA | 0.102 |
| GACGACAA | 0.118 |
| AAACGCTA | -0.279 |
| AGGCGATA | -0.203 |
| ACTGTGCT | 0.0886 |
| ACCCGAGA | -0.0197 |
| AGACCCGG | 0.201 |
| CGGTGAGA | 0.146 |
| CAATACAC | -0.0925 |
| CACTGGCG | 0.0434 |
| GGGCCTAC | -0.273 |
| ATGTCCCG | 0.0384 |
| GCACCACC | 0.0424 |
| CCTACAAA | -0.0055 |
| CGGAGACC | 0.155 |
| CTGACAGA | -0.145 |
| TATCAATA | 0.0758 |
| AACCACAC | 0.153 |
| ATTGGAAA | -0.327 |
| AGTAAAAT | -0.0518 |

| Sequence | PBM E-score |
| --- | --- |
| GCCTAACA | 0.026 |
| CAATGCAA | -0.09 |
| GTACCTTA | -0.0925 |
| AGCCGCCA | 0.00766 |
| TCACGGAA | 0.025 |
| AAGCATCC | -0.214 |
| CGGGCTCA | 0.07 |
| CTATTAAG | -0.204 |
| CAACGCGC | 0.0973 |
| AGCAACAA | 0.101 |
| ACGGTGAT | 0.0855 |
| ATATTGCG | 0.0989 |
| ACTCATTA | 0.175 |
| ACAGAGCA | 0.118 |
| GTCCTCGA | -0.042 |
| AATATCTC | 0.0209 |
| CCACTAAA | -0.081 |
| ACAACGCA | 0.0784 |
| AGTTGGAG | -0.0212 |
| CTGGTCTC | -0.164 |
| GAACTGAC | -0.0354 |
| GCAACCAC | 0.198 |
| ACCCATTG | 0.0779 |
| ACGTTGCC | -0.2 |
| ATCCGTCG | -0.0338 |

| Sequence | PBM E-score |
| --- | --- |
| TAATCCCA | 0.00513 |
| GATTGGAC | -0.106 |
| CGCCTCAG | -0.0435 |
| ATTTGATC | -0.0155 |
| AATACCCC | -0.179 |
| CCTAGAAC | -0.207 |
| CCTATCTA | -0.245 |
| AAAACCAG | 0.166 |
| ATGGAATA | 0.117 |
| ACTGCGTG | 0.143 |
| GCAATCTA | -0.0235 |
| GCAGCTCA | -0.254 |
| CAGCGATC | 0.0209 |
| TGATAACA | 0.0523 |
| GTCACTCA | 0.325 |
| CAGGCGGA | 0.191 |
| TAAAGAGA | -0.173 |
| ATCACTAC | 0.144 |
| TGTCTTAA | -0.258 |
| AGTTCGGA | 0.038 |
| ATTTGCAA | -0.119 |
| GGAACGCC | -0.0926 |
| ACGGCCTG | 0.00946 |
| CCACCTGA | 0.156 |
| AACACCGC | 0.09 |

| Sequence | PBM E-score |
| --- | --- |
| AAAATCAA | -0.193 |
| CATCGTGG | 0.209 |
| ACCGTGGG | 0.0651 |
| TGCAGTAA | -0.0479 |
| GTCCGGAA | 0.075 |
| ACTAGGCA | -0.0562 |
| ACAGAGAT | 0.106 |
| CACGCACG | -0.0948 |
| ATTGGGTG | 0.213 |
| ATTTTGCC | -0.15 |
| GACACCAC | 0.0753 |
| AGATAAAT | -0.101 |
| ACGGCAGC | 0.188 |
| CGTAGTGA | -0.0445 |
| ACATACTC | 0.101 |
| AATGTAGC | -0.0841 |
| AGGTCGCA | 0.0638 |
| AGGAGGGA | -0.101 |
| GTTTCAAA | -0.0415 |
| ACAACACA | 0.228 |
| CAACCGAA | -0.0275 |
| GCGGGTAC | 0.125 |
| ACGGTAAG | -0.254 |
| AGAATGGC | -0.0486 |
| AGGCAACT | 0.0155 |

| Sequence | PBM E-score |
| --- | --- |
| TATCCTCA | 0.0377 |
| AAGGGACC | -0.0468 |
| AACGAAAT | -0.161 |
| AGTTCGAT | -0.00249 |
| AATGGGGG | -0.227 |
| AAGAAAGC | -0.174 |
| AACTCCGT | 0.0655 |
| ACAGCCAT | 0.0895 |
| AATGCGTC | -0.223 |
| CGGCTACC | 0.145 |
| CTGGCTCC | 0.0343 |
| AGAGCCTC | -0.228 |
| ACGGGAAG | -0.199 |
| GTTCCTTA | -0.258 |
| CAGAGTAA | -0.0282 |
| CAGAGATA | 0.0147 |
| AACTGTAT | 0.0105 |
| CCTCATAG | -0.128 |
| CCAGGAAG | -0.212 |
| GCTAGTAC | 0.011 |
| TCATCGCA | 0.153 |
| AGAGGCAG | -0.107 |
| AATAGTGA | -0.0108 |
| AGCACGTG | 0.0862 |
| AGGGAGTG | 0.042 |

| Sequence | PBM E-score |
| --- | --- |
| ACTAGCCC | 0.0599 |
| AGCGAGTA | 0.119 |
| CTGAGACC | 0.0344 |
| GATCTCAA | 0.0719 |
| ACTGGCAC | -0.113 |
| AGTGCCAA | -0.195 |
| GGATGGCC | -0.241 |
| TATAAATA | -0.00903 |
| GGGTTTAC | -0.0429 |
| ATACCTAA | 0.053 |
| ATACGCCG | 0.194 |
| CATTAGAC | -0.0588 |
| GCTCATGA | 0.16 |
| GAGGGGTA | 0.0252 |
| AGAGCGAA | -0.0252 |
| CCCCGTGA | 0.0353 |
| CGCAGGTC | -0.0634 |
| GAGAATAA | 0.0169 |
| AAGAAATC | -0.352 |
| AAAGCACA | -0.0506 |
| GGTTACAA | 0.125 |
| AACGGGCG | -0.0264 |
| AATACATA | 0.124 |
| AACCTGCA | -0.105 |
| AAACTAGC | -0.0979 |

| Sequence | PBM E-score |
| --- | --- |
| GGATAAAC | 0.139 |
| CTACTCTC | -0.129 |
| CCATCGCA | 0.116 |
| GGCCTATA | -0.231 |
| AATTTTAG | -0.319 |
| AGTGCGGC | -0.0797 |
| ATACGCTC | 0.0424 |
| ACGAGCAC | 0.0949 |
| ACCTTCAA | -0.222 |
| CCATCTCA | 0.184 |
| CAAGTCGC | 0.132 |
| AGAAATTG | -0.0639 |
| CACCGTAG | 0.0515 |
| ACTCCTAT | 0.0975 |
| CGCCCGCG | 0.179 |
| CGGGTACA | 0.0928 |
| CGTTGGTC | 0.0669 |
| CCTTTCGC | -0.0467 |
| CTAATACA | 0.00027 |
| AAATAACA | -0.129 |
| GCACACGC | -0.0017 |
| CCAGAAGC | -0.131 |
| TAATCTAA | -0.203 |
| GATACGGC | -0.0645 |
| AGTGGGAT | 0.184 |

| Sequence | PBM E-score |
| --- | --- |
| CCTTCCCA | 0.0792 |
| AAGACCCA | 0.0351 |
| GTATCATA | 0.288 |
| ACGTCAGA | -0.0949 |
| CGGTGAAG | -0.127 |
| AAGCCTTC | -0.259 |
| CTGGACTC | 0.122 |
| GCCAAGCA | -0.0244 |
| ATAGCCCC | -0.257 |
| CCATCAAA | -0.00654 |
| CAGATCAA | 0.0315 |
| CGAACCCC | 0.0309 |
| ATGTTGTC | 0.0937 |
| AGGTGCGC | -0.128 |
| CACGACAC | 0.0491 |
| CCACAAGA | -0.0184 |
| CCGGCGGC | 0.0478 |
| ATAGCATG | -0.034 |
| GGATAAAA | -0.0106 |
| AGACACAC | 0.138 |
| TAGACCGA | 0.0966 |
| CCTCATTC | -0.0181 |
| GCCTAATA | -0.105 |
| ATGCGTCA | -0.0142 |
| ATCGTATG | 0.175 |

| Sequence | PBM E-score |
| --- | --- |
| CTATAAAA | -0.128 |
| CCAACGAA | -0.0836 |
| CTGAACCC | 0.141 |
| AAGTAACC | -0.0634 |
| GCGACAAC | -0.00886 |
| GTACTCCA | 0.0026 |
| GAATTCTA | -0.0556 |
| GAAGTTCC | -0.237 |
| CGAGGAGC | -0.0877 |
| GCAACTAC | 0.0982 |
| CACGGGCC | -0.0476 |
| CACGACTA | 0.209 |
| GCTAGCCA | -0.17 |
| GTTACCGA | -0.122 |
| CTCTATGC | 0.0426 |
| TAGAACAA | -0.0914 |
| AACAACTA | 0.0734 |
| TCCAGCGA | -0.132 |
| AGTGGACA | 0.0784 |

— the supplement of paper PMC3334620
